Results as given in the supplement of paper PMC10126150.
Sequences with one replicate were seen in a single cluster, so their values are uncertain.

test system: ATP; assay: switch fluorescence ratio, 500 uM ATP over buffer (Cy3 cluster intensity, sum of 5 cycles each) (fold (ratio)); higher = stronger signal-on switching upon ATP binding; sequences stand for … in TCGTCGGCAGCGTCAGATGTGTATAAGAGACAGTTTTTTTTTTTTTTTTTTTTTTTTT…TC; settings: aptamer strand: ATP DNA aptamer (quencher-CACCTGGGGGAGTATTGCGGAGGAAGG + anchor), 100 nM annealed; ATP concentration: 500 uM; one replicate
Outline: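 Clusters with intensities outside 100-1000 RFU were excluded. The remaining Cy3-labelled switching-strand clusters on a modified Illumina MiSeq flow-cell had been annealed to 100 nM quencher-labelled ATP aptamer and imaged in selection buffer, then after 15 min with 500 uM ATP at 22 °C, for five cycles separated by NaOH stripping and re-annealing. The fluorescence ratio, averaged per switch-domain sequence, is each cluster's summed target-cycle Cy3 intensity over its summed buffer-cycle Cy3 intensity.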
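Also: ATP exposure 15 min at 22 °C before imaging.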

Row | Sequence | switch fluorescence ratio
1 | AGGTTATGAT | 1.01
2 | AGGTTCAACT | 1.02
3 | AGGTTCGCCC | 0.995
4 | AGGTTCGGAA | 1.01
5 | AGGTTCGTCC | 0.977
6 | AGGTTGAA | 1.05
7 | AGGTTGGTCT | 0.994
8 | AGGTTGTAG | 1.01
9 | AGGTTTACGG | 1.03
10 | AGGTTTCTAT | 1.04
11 | AGGTTTTCG | 1
12 | AGTAAAAACC | 0.984
13 | AGTAACCGCT | 1.09
14 | AGTAACCTCG | 1.03
15 | AGTAACGGGG | 0.98
16 | AGTAAGACGA | 1.08
17 | AGTAAGGGG | 1.02
18 | AGTAATATGT | 1.05
19 | AGTACGGTAC | 1.28
20 | AGTACTAAAA | 0.993
21 | AGTACTGGAC | 1.19
22 | AGTAGAGTTC | 0.999
23 | AGTAGATTTC | 1
24 | AGTAGCAGAA | 1.05
25 | AGTAGCCCTT | 0.983
26 | AGTAGCCTGG | 1.03

Row | Sequence | switch fluorescence ratio
27 | AGTAGCGTTC | 1.04
28 | AGTAGCTCG | 1.1
29 | AGTAGGCGGA | 0.993
30 | AGTAGGGGAT | 0.998
31 | AGTAGGTGT | 1.15
32 | AGTAGTATAA | 1.01
33 | AGTAGTCACA | 1
34 | AGTAGTTTTT | 1.01
35 | AGTATACGCG | 1.03
36 | AGTATACTGC | 0.969
37 | AGTATAGAAT | 0.969
38 | AGTATATACT | 0.987
39 | AGTATATCAA | 1.01
40 | AGTATATCCA | 0.983
41 | AGTATATTTC | 0.958
42 | AGTATCATT | 0.987
43 | AGTATGCAGG | 0.973
44 | AGTATGCGT | 1.01
45 | AGTATGCTAC | 1.06
46 | AGTATTATA | 0.978
47 | AGTATTTTTC | 0.972
48 | AGTCAAAGA | 0.987
49 | AGTCAAAGTG | 0.979
50 | AGTCAGCG | 0.99
51 | AGTCAGCGAT | 1.2
52 | AGTCAGGTGT | 2.49

Row | Sequence | switch fluorescence ratio
53 | AGTCCCACGC | 1.06
54 | AGTCCCCGGG | 1.8
55 | AGTCCGCTCA | 2.01
56 | AGTCCGTTAG | 0.979
57 | AGTCGAAAAG | 0.993
58 | AGTCGAACCA | 1.02
59 | AGTCGCACCA | 1.02
60 | AGTCGTAATG | 1.01
61 | AGTCTAAGA | 0.976
62 | AGTCTACGTA | 0.995
63 | AGTCTGTATC | 0.989
64 | AGTCTTAAAA | 0.961
65 | AGTCTTTACC | 0.975
66 | AGTCTTTATG | 0.974
67 | AGTGAAGGGC | 0.979
68 | AGTGAATAAT | 1.09
69 | AGTGACCACA | 1.05
70 | AGTGACCGGA | 0.977
71 | AGTGACGGGG | 0.934
72 | AGTGAGATTT | 0.965
73 | AGTGAGGAAG | 0.994
74 | AGTGAGGAGC | 0.998
75 | AGTGAGGTTA | 1.03
76 | AGTGCACCAT | 1.03
77 | AGTGCCTTGT | 0.993
78 | AGTGCTCGGA | 1.02

Row | Sequence | switch fluorescence ratio
79 | AGTGCTGAGG | 0.908
80 | AGTGGAAGGC | 1.04
81 | AGTGGAGTGC | 1.09
82 | AGTGGAGTTA | 0.986
83 | AGTGGATTGA | 1.04
84 | AGTGGCACTA | 1.01
85 | AGTGGCCGCC | 0.981
86 | AGTGGCGGA | 0.966
87 | AGTGGCTGTA | 1.01
88 | AGTGGGTCTT | 0.965
89 | AGTGGTAATC | 1.01
90 | AGTGGTAGAC | 0.959
91 | AGTGGTAGAG | 0.968
92 | AGTGGTATCC | 1.03
93 | AGTGGTTACG | 1.04
94 | AGTGGTTTCC | 0.961
95 | AGTGTAGGCC | 0.989
96 | AGTGTAGGCG | 1.01
97 | AGTGTGTTCA | 1.01
98 | AGTGTTGAGC | 1.04
99 | AGTGTTTAGT | 0.966
100 | AGTTAACATA | 1.04
101 | AGTTAATCGA | 1
102 | AGTTAATCTT | 0.968
103 | AGTTACTCGA | 1.05
104 | AGTTAGATGT | 1.03

Row | Sequence | switch fluorescence ratio
105 | AGTTAGCGAC | 0.994
106 | AGTTAGTAAT | 1
107 | AGTTATCAGT | 1.05
108 | AGTTCACGG | 1.05
109 | AGTTCATAGC | 1
110 | AGTTCCAGAT | 1.03
111 | AGTTCCGGGG | 1.02
112 | AGTTCCTCAG | 1.63
113 | AGTTCGAAAA | 1.03
114 | AGTTCGCTA | 1.08
115 | AGTTGCCCG | 0.999
116 | AGTTGCTTGC | 0.94
117 | AGTTGGAACC | 0.987
118 | AGTTGGACC | 1.04
119 | AGTTGGTATA | 1.03
120 | AGTTGTAGGA | 0.959
121 | AGTTGTCATC | 0.946
122 | AGTTGTGAAC | 0.989
123 | AGTTGTGCAT | 1.02
124 | AGTTTATTTA | 1.01
125 | AGTTTGAACA | 1.05
126 | AGTTTGGTAG | 0.989
127 | AGTTTTCGA | 0.995
128 | AGTTTTTGA | 0.934
129 | AGTTTTTGTG | 0.97
130 | ATAAAAGGAG | 0.947

Row | Sequence | switch fluorescence ratio
131 | ATAAAATAGA | 0.972
132 | ATAAACGGAA | 1.09
133 | ATAAACTTTA | 0.986
134 | ATAAAGAGGG | 1.01
135 | ATAAAGAGTA | 1
136 | ATAAATAGGT | 0.984
137 | ATAAATGAA | 1.01
138 | ATAAATTATA | 1.02
139 | ATAAATTCG | 0.998
140 | ATAAATTGAA | 1
141 | ATAAATTTAA | 0.973
142 | ATAACAATTT | 1.03
143 | ATAACCAAAG | 1.02
144 | ATAACGACTT | 1.03
145 | ATAACGAGGG | 0.974
146 | ATAACGTTAC | 1.6
147 | ATAACTATGG | 1.01
148 | ATAACTTGCA | 1.03
149 | ATAACTTGTA | 0.971
150 | ATAAGACCG | 0.963
151 | ATAAGACGT | 0.978
152 | ATAAGCCC | 1.05
153 | ATAAGCCGCC | 1.1
154 | ATAAGCCTC | 0.998
155 | ATAAGCGTTG | 0.983
156 | ATAAGGAACT | 1.01

Row | Sequence | switch fluorescence ratio
157 | ATAAGGGAAA | 0.994
158 | ATAAGGGTCG | 0.98
159 | ATAAGGTG | 1.45
160 | ATAAGTATCT | 0.987
161 | ATAAGTCTAA | 0.957
162 | ATAAGTGGCT | 0.938
163 | ATAAGTTAT | 0.983
164 | ATAATAGCAG | 0.947
165 | ATAATAGGA | 0.975
166 | ATAATGCAAT | 1.03
167 | ATAATGGCAC | 1
168 | ATAATGTAGG | 0.963
169 | ATACAAGGG | 0.991
170 | ATACAGCGCT | 1.02
171 | ATACCAGTCG | 0.928
172 | ATACCCAGTT | 1.02
173 | ATACGATAAG | 1.05
174 | ATACGCGCGG | 0.973
175 | ATACGGACTC | 1.37
176 | ATACGGAGA | 1.06
177 | ATACGGATGA | 0.973
178 | ATACGGGTGA | 1.01
179 | ATACGTCGCA | 1.06
180 | ATACTAGGAA | 1.02
181 | ATACTATCCA | 0.986
182 | ATACTCATCT | 1.01

Row | Sequence | switch fluorescence ratio
183 | ATACTCCGGT | 1.2
184 | ATACTCGTCT | 1.06
185 | ATACTGAACG | 1.17
186 | ATACTGACGT | 1.4
187 | ATACTGTGCT | 1.01
188 | ATACTT | 1.23
189 | ATACTTTAAG | 1.04
190 | ATAGAGACAC | 1
191 | ATAGAGCGAA | 1.03
192 | ATAGAGGAGC | 0.937
193 | ATAGATGTCC | 1
194 | ATAGCAACGG | 1.04
195 | ATAGCAGGCA | 1.02
196 | ATAGCCCGTT | 1.02
197 | ATAGCGCTCT | 0.989
198 | ATAGCGTCAC | 1.06
199 | ATAGGAAGAG | 0.985
200 | ATAGGACCAT | 0.996
201 | ATAGGAGAAT | 1
